# Measurements from the supplement of paper PMC8728848.
# Some of the results follow.
# Key:
# Assay in all cases: glycan array binding signal (z-score within array); higher = stronger binding
# Settings in all cases: glycan notation: IUPAC condensed, linker removed
# Fuc(a1-2)Gal = target: Fuc(a1-2)Gal
# Method in brief: (§1)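 The Consortium for Functional Glycomics database supplied 3228 glycan arrays, of which those lacking an available protein sequence were dropped. The binding signal, a within-array Z-score, was averaged across arrays of the same protein sequence and across linkers. Negative scores can be read as non-binding.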
# Fuc(a1-2)Gal(b1-3)GalNAc = target: Fuc(a1-2)Gal(b1-3)GalNAc
# Method in brief: as §1
# [1] = target: Fuc(a1-2)Gal(b1-3)GalNAc(a1-3)[Fuc(a1-2)]Gal(b1-4)Glc
# Method in brief: as §1
# [2] = target: Fuc(a1-2)Gal(b1-3)GalNAc(a1-3)[Fuc(a1-2)]Gal(b1-4)GlcNAc
# Method in brief: as §1
# [3] = target: Fuc(a1-2)Gal(b1-3)GalNAc(b1-3)Gal
# Method in brief: as §1
# [4] = target: Fuc(a1-2)Gal(b1-3)GalNAc(b1-3)Gal(a1-4)Gal(b1-4)Glc
# Method in brief: as §1
# [5] = target: Fuc(a1-2)Gal(b1-3)GalNAc(b1-4)[Neu5Ac(a2-3)]Gal(b1-4)Glc
# Method in brief: as §1
# Fuc(a1-2)Gal(b1-3)GlcNAc = target: Fuc(a1-2)Gal(b1-3)GlcNAc
# Method in brief: as §1
# [6] = target: Fuc(a1-2)Gal(b1-3)GlcNAc(b1-2)Man(a1-3)[Fuc(a1-2)Gal(b1-3)GlcNAc(b1-2)Man(a1-6)]Man(b1-4)GlcNAc(b1-4)GlcNAc
# Method in brief: as §1
# [7] = target: Fuc(a1-2)Gal(b1-3)GlcNAc(b1-2)Man(a1-3)[Fuc(a1-2)Gal(b1-3)GlcNAc(b1-2)Man(a1-6)]Man(b1-4)GlcNAc(b1-4)[Fuc(a1-6)]GlcNAc
# Method in brief: as §1
# [8] = target: Fuc(a1-2)Gal(b1-3)GlcNAc(b1-3)Gal(b1-4)Glc
# Method in brief: as §1
# [9] = target: Fuc(a1-2)Gal(b1-3)GlcNAc(b1-3)GalNAc
# Method in brief: as §1
# [10] = target: Fuc(a1-2)Gal(b1-3)GlcNAc(b1-3)[Fuc(a1-2)Gal(b1-3)GlcNAc(b1-6)]GalNAc
# Method in brief: as §1
# [11] = target: Fuc(a1-2)Gal(b1-3)GlcNAc(b1-3)[Fuc(a1-3)[Gal(b1-4)]GlcNAc(b1-6)]Gal(b1-4)Glc
# Method in brief: as §1
# [12] = target: Fuc(a1-2)Gal(b1-3)GlcNAc(b1-3)[Gal(b1-4)GlcNAc(b1-6)]Gal(b1-4)Glc
# Method in brief: as §1
# [13] = target: Fuc(a1-2)Gal(b1-3)GlcNAc(b1-3)[Neu5Ac(a2-6)Gal(b1-4)GlcNAc(b1-6)]Gal(b1-4)Glc
# Method in brief: as §1
# [14] = target: Fuc(a1-2)Gal(b1-3)GlcNAc6S
# Method in brief: as §1
# [15] = target: Fuc(a1-2)Gal(b1-3)[Fuc(a1-4)]GlcNAc
# Method in brief: as §1
# [16] = target: Fuc(a1-2)Gal(b1-3)[Fuc(a1-4)]GlcNAc(b1-2)Man(a1-3)[Fuc(a1-2)Gal(b1-3)[Fuc(a1-4)]GlcNAc(b1-2)Man(a1-3)]Man(b1-4)GlcNAc(b1-4)GlcNAc
# Method in brief: as §1
# [17] = target: Fuc(a1-2)Gal(b1-3)[Fuc(a1-4)]GlcNAc(b1-2)Man(a1-3)[Fuc(a1-2)Gal(b1-3)[Fuc(a1-4)]GlcNAc(b1-2)Man(a1-6)]Man(b1-4)GlcNAc(b1-4)GlcNAc
# Method in brief: as §1
# [18] = target: Fuc(a1-2)Gal(b1-3)[Fuc(a1-4)]GlcNAc(b1-2)Man(a1-3)[Fuc(a1-2)Gal(b1-3)[Fuc(a1-4)]GlcNAc(b1-2)Man(a1-6)]Man(b1-4)GlcNAc(b1-4)[Fuc(a1-6)]GlcNAc(b1-4)[Fuc(a1-6)]GlcNAc
# Method in brief: as §1
# [19] = target: Fuc(a1-2)Gal(b1-3)[Fuc(a1-4)]GlcNAc(b1-3)[Fuc(a1-3)[Gal(b1-4)]GlcNAc(b1-6)]Gal(b1-4)Glc
# Method in brief: as §1
# [20] = target: Fuc(a1-2)Gal(b1-3)[Fuc(a1-4)]GlcNAc(b1-3)[Gal(b1-4)GlcNAc(b1-6)]Gal(b1-4)Glc
# Method in brief: as §1
# [21] = target: Fuc(a1-2)Gal(b1-4)Fuc(a1-3)]GlcNAc(b1-2)Man(a1-3)[Fuc(a1-2)Gal(b1-4)[Fuc(a1-3)]GlcNAc(b1-2)Man(a1-6)]Man(b1-4)GlcNAc(b1-4)GlcNAc
# Method in brief: as §1
# Fuc(a1-2)Gal(b1-4)Glc = target: Fuc(a1-2)Gal(b1-4)Glc
# Method in brief: as §1
# Fuc(a1-2)Gal(b1-4)Glc6S = target: Fuc(a1-2)Gal(b1-4)Glc6S
# Method in brief: as §1
# Fuc(a1-2)Gal(b1-4)GlcNAc = target: Fuc(a1-2)Gal(b1-4)GlcNAc
# Method in brief: as §1
# [22] = target: Fuc(a1-2)Gal(b1-4)GlcNAc(b1-2)Man
# Method in brief: as §1
# [23] = target: Fuc(a1-2)Gal(b1-4)GlcNAc(b1-2)Man(a1-3)[Fuc(a1-2)Gal(b1-4)GlcNAc(b1-2)Man(a1-6)]Man(b1-4)GlcNAc(b1-4)GlcNAc
# Method in brief: as §1
# [24] = target: Fuc(a1-2)Gal(b1-4)GlcNAc(b1-2)Man(a1-3)[Fuc(a1-2)Gal(b1-4)GlcNAc(b1-2)Man(a1-6)]Man(b1-4)GlcNAc(b1-4)[Fuc(a1-6)]GlcNAc
# Method in brief: as §1
binder,measurement,setting,value
"rCNL (Clitocybe nebularis), B2ZRS9 (protein) SITPGTYNITNVAYTNRLIDLTGSNPAENTLIIGHHLNKTPSGYGNQQWTLVQLPHTTIYTMQAVNPQSYVRVRDDNLVDGAALVGSQQPTPVSIESAGNSGQFRIKIPNLGLALTLPSDANSTPIVLGEVDETSTNQLWAFESVSAV",glycan array binding signal (z-score),Fuc(a1-2)Gal,-0.303
same,glycan array binding signal (z-score),Fuc(a1-2)Gal(b1-3)GalNAc,-0.244
same,glycan array binding signal (z-score),[1],0.063
same,glycan array binding signal (z-score),[2],0.333
same,glycan array binding signal (z-score),[3],-0.28
same,glycan array binding signal (z-score),[4],-0.262
same,glycan array binding signal (z-score),[5],-0.254
same,glycan array binding signal (z-score),Fuc(a1-2)Gal(b1-3)GlcNAc,-0.298
same,glycan array binding signal (z-score),[6],-0.235
same,glycan array binding signal (z-score),[7],-0.185
same,glycan array binding signal (z-score),[8],-0.195
same,glycan array binding signal (z-score),[9],-0.226
same,glycan array binding signal (z-score),[10],-0.211
same,glycan array binding signal (z-score),[11],-0.049
same,glycan array binding signal (z-score),[12],-0.212
same,glycan array binding signal (z-score),[13],-0.227
same,glycan array binding signal (z-score),[14],-0.21
same,glycan array binding signal (z-score),[15],-0.295
same,glycan array binding signal (z-score),[16],-0.032
same,glycan array binding signal (z-score),[17],-0.326
same,glycan array binding signal (z-score),[18],-0.21
same,glycan array binding signal (z-score),[19],-0.273
same,glycan array binding signal (z-score),[20],-0.304
same,glycan array binding signal (z-score),[21],-0.227
same,glycan array binding signal (z-score),Fuc(a1-2)Gal(b1-4)Glc,-0.3
same,glycan array binding signal (z-score),Fuc(a1-2)Gal(b1-4)Glc6S,-0.246
same,glycan array binding signal (z-score),Fuc(a1-2)Gal(b1-4)GlcNAc,-0.266
same,glycan array binding signal (z-score),[22],-0.207
same,glycan array binding signal (z-score),[23],-0.079
same,glycan array binding signal (z-score),[24],-0.116
